# Data as given in PubChem BioAssay AID651820 (National Center for Advancing Translational Sciences (NCATS), 2012).
# About 12,000 (3.5%) of roughly 340,000 compounds were called active. Inconclusive means that the source gave no clear call. Such entries were picked first, then a sample of the others. The call rests on the fitted dose curve; in most records, active means well fitted inhibition curve with a large enough effect; inconclusive means small, poorly fitted or top-dose-only effect, or another doubt; inactive means no such curve, though single readings can be large or run the other way. Potencies of inconclusive entries are left out as doubtful fits.
# Test: qHTS Assay for Inhibitors of Hepatitis C Virus (HCV)
# Conditions: Huh7.5.1 HCVcc-Cre (HCVcc is cell-culture hepatitis C virus) infection, luciferase reporter, 44 h; activity change, negative = inhibition: at 41.8 µM (top of the series) unless noted
# Summary of the method: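 Infectious HCVcc-Cre (~0.5 moi) was added to cells just after compound, with cells seeded 4 h earlier at 1,000 per well. Luciferase activity after 44 h culture reported infection; substrate was incubated 15 min at room temperature before reading.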
# On the % scale 0 is the no-effect control and ±100 the full control effect; potency means the concentration at half of the fitted maximal effect; tags describe the fitted curve by direction and shape.
SMILES,Potency,"activity change, negative = inhibition"
O=C(NCCc1ccccn1)c1cc(-c2ccc(Cl)c(Cl)c2Cl)nc2ccccc12,"inconclusive [inhibitor, single point]",–
CCS(=O)(=O)N1Cc2ccccc2CC1C(=O)Nc1cccc(OC)c1 (stereo not drawn),inactive,–
CNc1ccc(Br)cc(C(=O)/C=C/c2cc(OC)ccc2OC)c1=O,active: 5.01 µM,–
O=C(NC[C@@H]1CC[C@@H](Cc2ccc(-c3ccccc3)cc2)O1)Nc1ccc(Br)cc1,active: 5.01 µM,–
CCCc1nnc2n1N=C(c1ccc(-c3cc(Cl)ccc3Cl)o1)CS2,inactive,–
CCc1ccccc1NC(=O)c1ccc(OCc2c(C)noc2C)cc1,inactive,–
C=C(C)C1CCC2(C(=O)O)CCC3(C)C(CCC4C5(C)C(C=O)C(O)C(C)(C)C5CCC43C)C12 (stereo not drawn),"inconclusive [inhibitor, partial curve]",–
CCN1C=C(Cc2ccc(OC)cc2)C2=C(C1)C(c1ccc(OC)cc1)C(C#N)=C(N)O2 (stereo not drawn),"inconclusive [inhibitor, partial curve]",–
Cc1ccc(Oc2nc3ccccn3c(=O)c2/C=C(\C#N)C(=O)NC2CCS(=O)(=O)C2)c(C)c1 (stereo not drawn),inactive,–
CC(=O)c1sc(NC(=O)c2ccc(C)c(C)c2)nc1C,"inconclusive [inhibitor, full curve]",–
CC(=O)Nc1cccc(NC(=O)CSc2nc3c(=O)n(C)c(=O)n(C)c3n2C)c1,inactive,–
CCOc1nc(-c2ccccc2)ccc1-c1noc(-c2ccncc2)n1,inactive,–
COC(=O)Cc1c(C)c2ccc(OC3CCCCC3=O)c(C)c2oc1=O (stereo not drawn),"inconclusive [inhibitor, partial curve]",–
O=C(CCCOC(=O)c1ccc(O)cc1O)c1ccc(F)cc1,"inconclusive [inhibitor, partial curve]",–
COc1ccccc1CNC(=O)c1ccc2ccccc2n1,"inconclusive [inhibitor, partial curve]",–
COc1cc(C(=O)NC2CCCCC2)ccc1OCc1ccc(Cl)cc1Cl,inactive,–
COc1cc([N+](=O)[O-])cc(/C=N/NC(=O)C(C)Nc2cccc(C)c2)c1O (stereo not drawn),inactive,–
CC(/C=N/n1c(-c2cc(C)[nH]n2)n[nH]c1=S)=C\c1ccco1,inactive,–
Cc1ccc(S(=O)(=O)n2nc(-c3ccco3)nc2SCc2ccccc2)cc1,inactive,–
CCn1ncc(C2=NOC(C(=O)NCc3ccccc3)C2)c1C (stereo not drawn),inactive,–
Cc1ccc(C)c(S(=O)(=O)N2CCN(C(=O)[C@H](C)N3C(=O)C4CC=CCC4C3=O)CC2)c1 (stereo partly drawn),inactive,–
CC(=O)Nc1c(Cl)cc2c(c1Cl)Cc1ccccc1-2,"inconclusive [inhibitor, single point]",–
CCC1CCCCN1CCCNC(=O)CN1C(=O)CSc2ccc(S(=O)(=O)N3CCC(C)CC3)cc21 (stereo not drawn),inactive,–
O=C(Oc1c(CN2CCOCC2)cc(Cl)c2cccnc12)c1ccccc1,"inconclusive [inhibitor, single point]",–
O=C(N/N=C/c1c(O)ccc2ccccc12)c1ccc(CO)nc1,active: 11.2 µM,–

SMILES,Potency,"activity change, negative = inhibition"
Cc1c(Cc2ccc3c(c2)OCO3)sc(NC(=O)C2CC2)c1C(N)=O,inactive,–
CCCc1nc2sc3c(SCC(=O)NCc4ccco4)ncnc3c2c2c1CCC2,"inconclusive [inhibitor, partial curve]",–
Cc1ccc(S(=O)(=O)NCCC(=O)N2CCN(S(=O)(=O)c3cccc(F)c3)CC2)cc1C,–,inconclusive: -39.3% [inhibitor]
NC(N)=N/N=C/c1ccc(OS(=O)(=O)c2ccccc2)cc1,"inconclusive [inhibitor, single point]",–
CCOC(=O)C1=C(C)N=C2SCCC(=O)N2[C@@H]1c1cccs1,inactive,–
Cc1cc(C)c2nc(N3CCC(C(=O)NCCCN4CC(C)CC(C)C4)CC3)sc2c1 (stereo not drawn),"inconclusive [inhibitor, partial curve]",–
Cc1[nH]c2ccccc2c1/C=N/Nc1nc(N2CCCCC2)nc(N2CCCCC2)n1,"inconclusive [inhibitor, single point]",–
O=C(Nc1ccccc1C(=O)N1CCOCC1)c1ccc(CSc2ccccc2)cc1,inactive,–
COc1ccc(OC)c(C(O)c2coc3ccc(O)c(CN(C)C)c23)c1 (stereo not drawn),inactive,–
COc1ccc(-c2c(C#Cc3ccsc3)c3cc(Br)ccc3n2C)cc1,"inconclusive [inhibitor, partial curve]",–
Cc1ccc(-c2csc(NC(=O)C3CCN(S(=O)(=O)c4cccs4)CC3)n2)cc1,active: 10 µM,–
Cc1ccc(S(=O)(=O)Nc2ccc(O)c(S(=O)(=O)c3ccc(C)cc3)c2)cc1,inactive,–
Cc1cccc(OCC(O)CN2CCNCC2)c1 (stereo not drawn),inactive,–
CC(=O)N1CCc2cc(S(=O)(=O)CCC(=O)NCc3ccc(F)cc3)ccc21,inactive,–
CC(NC(=O)Cc1ccc(-c2ccccc2)cc1)c1ccccc1 (stereo not drawn),active: 14.1 µM,–
COc1cc(C(O)P(=O)(OC2CCCCC2)c2ccc(N(C)C)cc2)cc(OC)c1OC (stereo not drawn),inactive,–
Clc1ccc2c(N/N=C/c3ccc(Br)cc3)ccnc2c1,active: 11.2 µM,–
CCOC(=O)c1ccc(NC(=O)N2CCN(Cc3cccc(F)c3)CC2)cc1,"inconclusive [inhibitor, partial curve]",–
O=C(C1CCC(=O)N(C2CCCCCC2)C1)N1CCN(c2ccccc2Cl)CC1 (stereo not drawn),"inconclusive [inhibitor, single point]",–
O=C(Nc1cccc(C(=O)Nc2ccc(F)cc2F)c1)c1ccccc1,"inconclusive [inhibitor, partial curve]",–
CC(=O)Nc1ccc2c(c1)N(C(=O)CN(C)C)c1ccccc1CC2,inactive,–
CC1CCCCC1NC(=O)c1ccc(N2CCCC2=O)cc1 (stereo not drawn),"inconclusive [inhibitor, full curve, poor fit]",–
O=C(Cc1cccc2ccccc12)N/N=C/c1ccc(OC(=O)/C=C/c2ccco2)cc1,"inconclusive [inhibitor, partial curve, poor fit]",–
Cc1c(C(=O)N2CCC3(CC2)OCCO3)oc2ccccc12,inactive,–
Nc1cc(F)ccc1N1CCCCCC1,"inconclusive [inhibitor, single point]",–

SMILES,Potency,"activity change, negative = inhibition"
COc1ccc(CCn2c(N)c(C(=O)NCc3ccco3)c3nc4ccccc4nc32)cc1,"inconclusive [inhibitor, full curve, poor fit]",–
Oc1cccc(Nc2c3ccccc3nc3ccccc23)c1,"inconclusive [inhibitor, single point]",–
CCOc1ccc(N2CC(C(=O)NCCN3C(=O)S/C(=C\c4ccc(OC)cc4)C3=O)CC2=O)cc1 (stereo not drawn),"inconclusive [inhibitor, full curve]",–
Cc1cccc(N2CCN(S(=O)(=O)c3ccc4c(c3)NC(=O)C(C)S4)CC2)c1C (stereo not drawn),active: 0.316 µM,–
CCOC(=O)c1c(NC(=O)COC(=O)c2ccc(Cl)nc2)sc(C(=O)N(C)C)c1C,inactive,–
O=C(CN1CCCCCC1)Nc1ccc(F)c(F)c1,"inconclusive [inhibitor, partial curve, poor fit]",–
O=C(c1ccc(Br)cc1)c1cc([N+](=O)[O-])ccc1N1CCCCC1,"inconclusive [inhibitor, single point]",–
Nc1ccc2c(c1)sc1ccccc12,"inconclusive [inhibitor, full curve, poor fit]",–
Cc1ccc(-n2nnc3c(SCC(=O)NCc4ccco4)ncnc32)cc1,"inconclusive [inhibitor, partial curve]",–
C1COC(NC(C2CC2)C2CC2)=N1,–,inactive: 10.9% [at 8.37 µM]
O=C(NCc1ccccc1Cl)C1CCN(S(=O)(=O)c2cccs2)CC1,"inconclusive [inhibitor, single point]",–
Cc1csc(SCc2nc3sc4c(c3c(=O)[nH]2)CCC4)n1,"inconclusive [inhibitor, single point]",–
Nc1nonc1-c1nc2ccccc2n1Cc1ccc(F)cc1,"inconclusive [inhibitor, single point]",–
Cc1cc(Cl)ccc1OCCCC(=O)NC1CCN(C)CC1,"inconclusive [inhibitor, partial curve]",–
O=C(N/N=C(\Cc1ncc[nH]1)c1ccccc1)c1ccncc1,"inconclusive [inhibitor, single point]",–
Cc1c(C(=O)Nc2cccnc2)oc2ccc(Br)cc12,"inconclusive [inhibitor, partial curve]",–
COc1ccc(-c2csc(NC(=O)C3CCCO3)n2)cc1 (stereo not drawn),"inconclusive [inhibitor, single point]",–
Cc1ccn2c(NC3CCCCC3)c(-c3cccc(-c4cccc(Cl)c4)c3)nc2c1,"inconclusive [inhibitor, single point]",–
O=C(Cn1cnc(S(=O)(=O)N2CCCC2)c1)Nc1ccc(OC(F)(F)F)cc1,inactive,–
Cc1ccc(OCCn2cc(/C=C(\C#N)C(=O)NCC3CCCO3)c3ccccc32)cc1C (stereo not drawn),"inconclusive [inhibitor, partial curve]",–
COc1cc(CNc2ncc(-c3ccc(Br)cc3)n2C)cc(OC)c1OC,"inconclusive [inhibitor, single point]",–
COc1cccc(CC(=O)OCC(=O)N(C)CC(=O)Nc2ccc(Cl)c(C(F)(F)F)c2)c1,"inconclusive [inhibitor, single point]",–
COc1ccc(NC(=O)N2CCN(c3nc4ccccc4n3C(C)C)CC2)cc1,"inconclusive [inhibitor, single point]",–
